Screen size: about 150,000 compounds; about 6,500 (4.3%) were called active. This list was built around the results that the source calls inconclusive (neither active nor inactive); the mix of calls is not that of the screen. Calls follow the shape of the dose curve; as a rule, active = well fitted inhibition curve with a large enough effect (not every such curve was filed as active); inconclusive = small, poorly fitted or top-dose-only effect, or another doubt; inactive = no such curve, though single readings can be large or run the other way. Potencies of inconclusive entries are left out as doubtful fits.
The compounds below were run against 15-hydroxyprostaglandin dehydrogenase [NAD(+)] (Homo sapiens) (UniProt P15428) (assay: qHTS Assay for Inhibitors of HPGD (15-Hydroxyprostaglandin Dehydrogenase)). Settings: purified HPGD, NADH fluorescence kinetic, PGE2 substrate; activity change, negative = inhibition: active compounds read low.
In short: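 20 nM HPGD preincubated 15 min at room temperature with compound in 50 mM Tris-HCl pH 8, 0.01% Tween 20. Started with 1 mM NAD+ and 30 uM prostaglandin E2; NADH fluorescence (360/450 nm) read 5 times over 30-s intervals, last minus first.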
% is scaled to controls: 0 for no effect and ±100 for the full control effect; potency is read from the fitted curve at half-maximal effect; tags tell the direction and shape of the fitted curve.

Sequence of UniProt P15428 (P15428 whole entry, looked up): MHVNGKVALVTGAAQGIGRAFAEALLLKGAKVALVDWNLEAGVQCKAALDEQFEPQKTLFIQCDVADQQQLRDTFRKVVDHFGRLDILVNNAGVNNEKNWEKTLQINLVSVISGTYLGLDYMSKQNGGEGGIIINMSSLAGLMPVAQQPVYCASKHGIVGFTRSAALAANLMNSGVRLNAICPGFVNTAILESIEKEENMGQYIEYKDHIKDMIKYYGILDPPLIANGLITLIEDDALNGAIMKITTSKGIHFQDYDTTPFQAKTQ

Row | Structure (SMILES) | Potency | activity change, negative = inhibition
1 | COc1cccc(NC(=S)NCc2cccs2)c1 | active: 17.8 µM | 
2 | Cc1ccc2c(c1)c1c(n2CC(O)Cn2c(C)nc3ccccc32)C(=O)CCC1 (stereo unspecified) | inconclusive [inhibitor, partial curve] | 
3 | CCCCNC(=O)C(CC)Sc1nc2sc(C(=O)OC)c(C)c2c(=O)n1N (stereo unspecified) | inconclusive [inhibitor, partial curve] | 
4 | O=C(O)CSc1nc(-c2ccccc2)nc2c1oc1ccccc12 | inconclusive [inhibitor, single point] | 
5 | Clc1ccccc1-c1nn2c(COc3ccccc3)nnc2s1 | active: 28.2 µM | 
6 | O=[N+]([O-])c1cc(/C=N/Nc2nc3ccccc3[nH]2)c(O)cc1O | inconclusive [inhibitor, partial curve] | 
7 | CN1CCc2c(sc3c2C(=O)NC(c2ccco2)N3)C1 (stereo unspecified) | inconclusive [inhibitor, partial curve] | 
8 | COc1ccccc1CC(=O)NCC1CCCO1 (stereo unspecified) | active: 25.1 µM | 
9 | CCOC(=O)/C(=C\C=C1/Sc2ccccc2N1CC)C(C)=O |  | inactive: -13.2%
10 | Cc1ccc(Cn2ncn3c(cc4ccccc43)c2=O)cc1 | inconclusive [inhibitor, partial curve] | 
11 | O=C1c2ccccc2NC(c2ccncc2)N1c1ccccn1 (stereo unspecified) | inconclusive [inhibitor, partial curve] | 
12 | O=C1CSC(c2cn(-c3ccccc3)nc2-c2cc3ccccc3oc2=O)N1Cc1ccccc1 (stereo unspecified) | inconclusive [inhibitor, partial curve] | 
13 | CCOc1ccc(NC(=O)CCSc2ccc3ccccc3n2)cc1 |  | inactive: -13.5%
14 | O=S1(=O)CCN2C=C(Br)C=C(Br)C2=N1 | inconclusive [inhibitor, partial curve] | 
15 | COc1ccccc1CN1CCC2(CC1)CCN(C(=O)c1cc(C(F)(F)F)cc(C(F)(F)F)c1)CC2 |  | inactive: -12.9%
16 | CC1CCCC(C)N1C(=O)CSc1nc2ccccc2s1 (stereo unspecified) | active: 2.24 µM | 
17 | O=C(CSCc1c(Cl)cccc1Cl)Nc1nccs1 | active: 20 µM | 
18 | Cc1ccc(C(=O)O)cc1NC(=S)NC(=O)c1ccc([N+](=O)[O-])cc1Cl |  | inactive: -3.95%
19 | CCC1=C2CC[C@H]3C(=O)N(C)C(=O)[C@H]3[C@H]2[C@@]2(Cc3ccccc3)C(=NCC3CC3)OC(=O)N2C1=O |  | inactive: -4.55%
20 | CC(=O)Nc1ccc(Cc2ccc3[nH]c(=O)cc(C)c3c2)cc1 | inconclusive [inhibitor, partial curve] | 
21 | O=C1N=C(N2CCCC2)S/C1=C\c1cn[nH]c1-c1ccccc1 | inconclusive [inhibitor, single point] | 
